# In all, about 330,000 compounds went through this assay and about 300 (0.091%) were called active. Inconclusive results, whose numbers are uncertain, are shown with a selection of clear calls. The call rests on the fitted dose curve; in most records, active means well fitted inhibition curve with a large enough effect; inconclusive means small, poorly fitted or top-dose-only effect, or effect the other way, or another doubt; inactive means no such curve, though single readings can be large or run the other way. Potencies of inconclusive entries are left out as doubtful fits.
# Molecular target: Lysosomal acid glucosylceramidase (Homo sapiens) (UniProt P04062)
# Experiment: qHTS Assay for Inhibitors and Activators of N370S glucocerebrosidase as a Potential Chaperone Treatment of Gaucher Disease;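 on activity change, negative = inhibition: 0% = full enzyme activity and -100% = no enzyme basal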
# Settings: N370S GC spleen homogenate, 4MU-glucoside fluorescence; activity change, negative = inhibition: at 59.4 µM (top of the series) unless noted
# Potency means the concentration at half of the fitted maximal effect.
SMILES,Potency,"activity change, negative = inhibition"
Cc1ccc(C(C)C)c(OCC(O)CN2CCc3ccccc3C2)c1 (stereo unspecified),"inconclusive [inhibitor, partial curve]",
Cc1cccc(COc2ncnc3nc[nH]c23)c1,inactive,
COCCNC(=S)N(CCc1c(C)[nH]c2ccc(Cl)cc12)Cc1cccs1,"inconclusive [activator, partial curve]",
CC(C)(C)c1nnc(NC(=O)c2cccs2)s1,"inconclusive [activator, single point]",
N#Cc1c(N)sc(=S)c2c1CCN(Cc1ccccc1)C2,inactive,
Cc1ccc(-c2nc(C#N)c(N3CCCCC3)o2)cc1,"inconclusive [activator, partial curve]",
O=C1NN(c2cccc(Br)c2)C(=O)/C1=C\c1ccc(O)cc1,inactive,
COc1ccc(-c2nc3cnc(N4CCNCC4)nc3n(-c3ccccc3)c2=O)cc1,"inconclusive [inhibitor, partial curve]",
O=C(O)C1CCN(S(=O)(=O)c2cccc3nsnc23)CC1,"inconclusive [activator, single point]",
C[C@@H](NC(=O)/C(C#N)=C/c1ccc(O)c(O)c1)c1ccccc1,inactive,
O=C(Oc1ccc2c3c(c(=O)oc2c1)CCCC3)c1ccco1,"inconclusive [activator, partial curve]",
Cc1csc(CCc2nc(C)cs2)n1,"inconclusive [inhibitor, single point]",
O=C(NCCNC(=O)c1cc(OCC(F)(F)F)ccc1OCC(F)(F)F)Nc1ccccc1,"inconclusive [inhibitor, single point]",
COc1cccc(Cn2c(=O)c(-c3ccccc3)nc3cnc(N(C)C)nc32)c1,,inconclusive: 33.6% [activator]
Cc1cc(=O)oc2cc(OCC3CC(c4ccccc4Cl)=NO3)ccc12 (stereo unspecified),"inconclusive [activator, partial curve, poor fit]",
CCc1cc2c(CN3CCN(Cc4ccccc4)CC3)cc(=O)oc2cc1O,"inconclusive [activator, partial curve]",
Cc1ccccc1OCCNc1cc(N2CCN(CCO)CC2)ccc1[N+](=O)[O-],"inconclusive [inhibitor, partial curve]",
Cc1ccc2c(c1)N(C(=O)CCC(=O)NCCCN1CCC(Cc3ccccc3)CC1)CCO2,"inconclusive [inhibitor, partial curve]",
COc1ccc(C(C(=O)NCc2ccccc2)N(C(=O)c2snc(C(N)=O)c2N)c2ccccc2OC)cc1OC (stereo unspecified),"inconclusive [activator, single point]",
CSc1nc(N(CCO)CCO)c2sc3nc(-c4ccco4)c4c(c3c2n1)CCC4,inactive,
CC(C)(C)c1nnc2sc(SCC(=O)N3CCCc4ccccc43)nn2c1=O,"inconclusive [activator, partial curve]",

SMILES,Potency,"activity change, negative = inhibition"
CCOc1cc(CNc2ccc3c(c2)CCC3)ccc1O,"inconclusive [inhibitor, partial curve, poor fit]",
COc1ccc2c(Cl)c(C(=O)N/N=C/c3c(C)[nH]c4ccccc34)sc2c1,"inconclusive [activator, partial curve]",
CC(Oc1cc2oc(=O)c3c(c2cc1Cl)CCC3)C(=O)N1C[C@H]2C[C@@H](C1)c1cccc(=O)n1C2 (stereo partly specified),"inconclusive [activator, single point]",
Cc1ccc2[nH]c3c(=O)n(N)c(=O)[nH]c3c2c1,"inconclusive [activator, single point]",
CN(Cc1ccco1)c1ncnc2ccc(-c3cccc(Cl)c3)cc12,"inconclusive [inhibitor, partial curve, poor fit]",
Cc1nc2nc(SCC(=O)Nc3cccc(F)c3)[nH]c2cc1Br,"inconclusive [activator, full curve, poor fit]",
COc1ccccc1-c1nc(SCC(=O)Nc2ccccc2)n[nH]1,"inconclusive [activator, partial curve, poor fit]",
CCOc1ccc(C2C(C(=O)O)c3ccccc3C(=O)N2CCN2CCOCC2)cc1 (stereo unspecified),"inconclusive [inhibitor, full curve, poor fit]",
O=C(Nc1cc(C(F)(F)F)ccc1-n1cnc2ccccc21)c1ccccc1,"inconclusive [activator, partial curve]",
CCOC(=O)c1nnn(-c2nonc2-n2cccc2)c1CCl,inactive,
COc1ccc(C)cc1NC(=O)CN1CCN(C/C=C/c2ccccc2)CC1,"inconclusive [inhibitor, partial curve]",
O=C(Nc1cccnc1)c1ccc(NC(=O)c2ccco2)cc1,"inconclusive [activator, partial curve, poor fit]",
C/C(=N/NC(=O)C1CC1(c1ccccc1)c1ccccc1)c1cccs1 (stereo unspecified),"inconclusive [activator, partial curve]",
CC#CCN1c2ccccc2[C@]23C[C@@H](C(=O)OC)N(S(=O)(=O)c4ccc([N+](=O)[O-])cc4)C2=NC(C(=O)OC)=C(C(=O)OC)[C@H]13,,inactive: 3.32% [at 12.8 µM]
O=C(CCCc1ccccc1)Nc1ccccn1,"inconclusive [inhibitor, full curve, poor fit]",
O=C(CSc1ccccc1)NC1CCCCCCC1,inactive,
COc1ccc(N2C(=O)N(Cc3ccccc3F)c3ccccc3S2(=O)=O)cc1,"inconclusive [activator, partial curve]",
O=C(Nc1cccc(F)c1)N1CC[C@@]2(CCCN(S(=O)(=O)c3ccccc3)C2)C1,"inconclusive [activator, single point]",
CCN1CCN(c2cc(C(C)C)nc3c(-c4ccccc4)c(C)nn23)CC1,"inconclusive [inhibitor, single point]",
O=C(N/N=C/c1cc([N+](=O)[O-])ccc1O)C12CC3CC(CC(C3)C1)C2,inactive,
